# Measured values from the supplement of paper PMC8728848.
# This is one part of the list.
# Legend:
# Test in all cases: glycan array binding signal (z-score within array); higher = stronger binding
# Settings in all cases: glycan notation: IUPAC condensed, linker removed
# [1] = biological target: Fuc(a1-2)Gal
# Method in brief: (§1)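 Columns mapping to the same glycan were averaged after glycan names were converted to IUPAC-condensed notation. The data come from 3228 arrays in the Consortium for Functional Glycomics database, limited to those with an available protein sequence. Binding is reported as a within-array Z-score averaged across arrays of one protein sequence and across linkers.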
# [2] = biological target: Fuc(a1-2)Gal(b1-3)GalNAc
# Method in brief: as §1
# [3] = biological target: Fuc(a1-2)Gal(b1-3)GalNAc(a1-3)[Fuc(a1-2)]Gal(b1-4)Glc
# Method in brief: as §1
# [4] = biological target: Fuc(a1-2)Gal(b1-3)GalNAc(a1-3)[Fuc(a1-2)]Gal(b1-4)GlcNAc
# Method in brief: as §1
# [5] = biological target: Fuc(a1-2)Gal(b1-3)GalNAc(b1-3)Gal
# Method in brief: as §1
# [6] = biological target: Fuc(a1-2)Gal(b1-3)GalNAc(b1-3)Gal(a1-4)Gal(b1-4)Glc
# Method in brief: as §1
# [7] = biological target: Fuc(a1-2)Gal(b1-3)GalNAc(b1-4)[Neu5Ac(a2-3)]Gal(b1-4)Glc
# Method in brief: as §1
# [8] = biological target: Fuc(a1-2)Gal(b1-3)GlcNAc
# Method in brief: as §1
# [9] = biological target: Fuc(a1-2)Gal(b1-3)GlcNAc(b1-2)Man(a1-3)[Fuc(a1-2)Gal(b1-3)GlcNAc(b1-2)Man(a1-6)]Man(b1-4)GlcNAc(b1-4)GlcNAc
# Method in brief: as §1
# [10] = biological target: Fuc(a1-2)Gal(b1-3)GlcNAc(b1-2)Man(a1-3)[Fuc(a1-2)Gal(b1-3)GlcNAc(b1-2)Man(a1-6)]Man(b1-4)GlcNAc(b1-4)[Fuc(a1-6)]GlcNAc
# Method in brief: as §1
# [11] = biological target: Fuc(a1-2)Gal(b1-3)GlcNAc(b1-3)Gal(b1-4)Glc
# Method in brief: as §1
# [12] = biological target: Fuc(a1-2)Gal(b1-3)GlcNAc(b1-3)GalNAc
# Method in brief: as §1
# [13] = biological target: Fuc(a1-2)Gal(b1-3)GlcNAc(b1-3)[Fuc(a1-2)Gal(b1-3)GlcNAc(b1-6)]GalNAc
# Method in brief: as §1
# [14] = biological target: Fuc(a1-2)Gal(b1-3)GlcNAc(b1-3)[Gal(b1-4)GlcNAc(b1-6)]Gal(b1-4)Glc
# Method in brief: as §1
# [15] = biological target: Fuc(a1-2)Gal(b1-3)GlcNAc(b1-3)[Neu5Ac(a2-6)Gal(b1-4)GlcNAc(b1-6)]Gal(b1-4)Glc
# Method in brief: as §1
# [16] = biological target: Fuc(a1-2)Gal(b1-3)GlcNAc6S
# Method in brief: as §1
# [17] = biological target: Fuc(a1-2)Gal(b1-3)[Fuc(a1-4)]GlcNAc
# Method in brief: as §1
# [18] = biological target: Fuc(a1-2)Gal(b1-3)[Fuc(a1-4)]GlcNAc(b1-2)Man(a1-3)[Fuc(a1-2)Gal(b1-3)[Fuc(a1-4)]GlcNAc(b1-2)Man(a1-3)]Man(b1-4)GlcNAc(b1-4)GlcNAc
# Method in brief: as §1
# [19] = biological target: Fuc(a1-2)Gal(b1-3)[Fuc(a1-4)]GlcNAc(b1-2)Man(a1-3)[Fuc(a1-2)Gal(b1-3)[Fuc(a1-4)]GlcNAc(b1-2)Man(a1-6)]Man(b1-4)GlcNAc(b1-4)[Fuc(a1-6)]GlcNAc(b1-4)[Fuc(a1-6)]GlcNAc
# Method in brief: as §1
# [20] = biological target: Fuc(a1-2)Gal(b1-3)[Fuc(a1-4)]GlcNAc(b1-3)[Fuc(a1-3)[Gal(b1-4)]GlcNAc(b1-6)]Gal(b1-4)Glc
# Method in brief: as §1
# [21] = biological target: Fuc(a1-2)Gal(b1-3)[Fuc(a1-4)]GlcNAc(b1-3)[Gal(b1-4)GlcNAc(b1-6)]Gal(b1-4)Glc
# Method in brief: as §1
# [22] = biological target: Fuc(a1-2)Gal(b1-4)Fuc(a1-3)]GlcNAc(b1-2)Man(a1-3)[Fuc(a1-2)Gal(b1-4)[Fuc(a1-3)]GlcNAc(b1-2)Man(a1-6)]Man(b1-4)GlcNAc(b1-4)GlcNAc
# Method in brief: as §1
# [23] = biological target: Fuc(a1-2)Gal(b1-4)Glc
# Method in brief: as §1
# [24] = biological target: Fuc(a1-2)Gal(b1-4)Glc6S
# Method in brief: as §1
# [25] = biological target: Fuc(a1-2)Gal(b1-4)GlcNAc
# Method in brief: as §1
# [26] = biological target: Fuc(a1-2)Gal(b1-4)GlcNAc(b1-2)Man
# Method in brief: as §1
# [27] = biological target: Fuc(a1-2)Gal(b1-4)GlcNAc(b1-2)Man(a1-3)[Fuc(a1-2)Gal(b1-4)GlcNAc(b1-2)Man(a1-6)]Man(b1-4)GlcNAc(b1-4)GlcNAc
# Method in brief: as §1
# [28] = biological target: Fuc(a1-2)Gal(b1-4)GlcNAc(b1-2)Man(a1-3)[Fuc(a1-2)Gal(b1-4)GlcNAc(b1-2)Man(a1-6)]Man(b1-4)GlcNAc(b1-4)[Fuc(a1-6)]GlcNAc
# Method in brief: as §1
# [29] = biological target: Fuc(a1-2)Gal(b1-4)GlcNAc(b1-2)[Fuc(a1-2)Gal(b1-4)GlcNAc(b1-4)]Man(a1-3)[Fuc(a1-2)Gal(b1-4)GlcNAc(b1-2)Man(a1-6)]Man(b1-4)GlcNAc(b1-4)GlcNAc
# Method in brief: as §1
# [30] = biological target: Fuc(a1-2)Gal(b1-4)GlcNAc(b1-3)Gal(b1-4)GlcNAc
# Method in brief: as §1
# [31] = biological target: Fuc(a1-2)Gal(b1-4)GlcNAc(b1-3)Gal(b1-4)GlcNAc(b1-2)Man(a1-3)[Fuc(a1-2)Gal(b1-4)GlcNAc(b1-3)Gal(b1-4)GlcNAc(b1-2)Man(a1-6)]Man(b1-4)GlcNAc(b1-4)GlcNAc
# Method in brief: as §1
# [32] = biological target: Fuc(a1-2)Gal(b1-4)GlcNAc(b1-3)Gal(b1-4)GlcNAc(b1-3)Gal(b1-4)GlcNAc
# Method in brief: as §1
# [33] = biological target: Fuc(a1-2)Gal(b1-4)GlcNAc(b1-3)GalNAc
# Method in brief: as §1
# [34] = biological target: Fuc(a1-2)Gal(b1-4)GlcNAc(b1-3)[Fuc(a1-2)Gal(b1-4)GlcNAc(b1-6)]GalNAc
# Method in brief: as §1
# [35] = biological target: Fuc(a1-2)Gal(b1-4)GlcNAc(b1-3)[Fuc(a1-3)[Gal(b1-4)]GlcNAc(b1-6)]Gal(b1-4)Glc
# Method in brief: as §1
# [36] = biological target: Fuc(a1-2)Gal(b1-4)GlcNAc(b1-6)GalNAc
# Method in brief: as §1
# [37] = biological target: Fuc(a1-2)Gal(b1-4)GlcNAc6S
# Method in brief: as §1
# [38] = biological target: Fuc(a1-2)Gal(b1-4)[Fuc(a1-3)]GlcNAc
# Method in brief: as §1
# [39] = biological target: Fuc(a1-2)Gal(b1-4)[Fuc(a1-3)]GlcNAc(b1-2)Man(a1-3)[Fuc(a1-2)Gal(b1-4)[Fuc(a1-3)]GlcNAc(b1-2)Man(a1-6)]Man(b1-4)GlcNAc(b1-4)[Fuc(a1-6)]GlcNAc
# Method in brief: as §1
# [40] = biological target: Fuc(a1-2)Gal(b1-4)[Fuc(a1-3)]GlcNAc(b1-2)[Fuc(a1-2)Gal(b1-4)[Fuc(a1-3)]GlcNAc(b1-4)]Man(a1-3)[Fuc(a1-2)Gal(b1-4)[Fuc(a1-3)]GlcNAc(b1-2)Man(a1-6)]Man(b1-4)GlcNAc(b1-4)GlcNAc
# Method in brief: as §1
# [41] = biological target: Fuc(a1-2)Gal(b1-4)[Fuc(a1-3)]GlcNAc(b1-3)Gal(b1-4)[Fuc(a1-3)]GlcNAc
# Method in brief: as §1
# [42] = biological target: Fuc(a1-2)Gal(b1-4)[Fuc(a1-3)]GlcNAc(b1-3)Gal(b1-4)[Fuc(a1-3)]GlcNAc(b1-3)Gal(b1-4)[Fuc(a1-3)]GlcNAc
# Method in brief: as §1
# [43] = biological target: Fuc(a1-2)Gal(b1-4)[Fuc(a1-3)]GlcNAc(b1-3)GalNAc
# Method in brief: as §1
# [44] = biological target: Fuc(a1-2)Gal(b1-4)[Fuc(a1-3)]GlcNAc(b1-3)[Neu5Ac(a2-6)Gal(b1-4)GlcNAc(b1-6)]Gal(b1-4)Glc
# Method in brief: as §1
# [45] = biological target: Fuc(a1-2)Gal3S(b1-4)GlcNAc
# Method in brief: as §1
binder,measurement,setting,value
DrGal3 (Danio rerio) (protein) MDLSDALDAPPQQNNQQAGGPVWPGQPANPVWPGQPANPTWPGQPNQPAWPGQPNQQWPGQPGQPTAPGWPGPAPQTGPYGAPGQAPQVLTVPLDFPLQNGAYNKMLITINGEVKPNAKQFTVNLRRGNDIAFHINPRFSEGGKPVIVRNSMIGNNWGREERELPSFPFVPGKPFEMKILITDTEYKVAVNKSHLLEFKHRVFELNQITGLSIYNDVTLSTVNVETLQ,glycan array binding signal (z-score),[1],-0.241
same,glycan array binding signal (z-score),[2],-0.26
same,glycan array binding signal (z-score),[3],-0.254
same,glycan array binding signal (z-score),[4],-0.249
same,glycan array binding signal (z-score),[5],-0.246
same,glycan array binding signal (z-score),[6],-0.2
same,glycan array binding signal (z-score),[7],-0.203
same,glycan array binding signal (z-score),[8],-0.222
same,glycan array binding signal (z-score),[9],-0.23
same,glycan array binding signal (z-score),[10],-0.168
same,glycan array binding signal (z-score),[11],-0.209
same,glycan array binding signal (z-score),[12],-0.232
same,glycan array binding signal (z-score),[13],-0.164
same,glycan array binding signal (z-score),[14],-0.194
same,glycan array binding signal (z-score),[15],-0.236
same,glycan array binding signal (z-score),[16],-0.202
same,glycan array binding signal (z-score),[17],-0.22
same,glycan array binding signal (z-score),[18],-0.187
same,glycan array binding signal (z-score),[19],-0.217
same,glycan array binding signal (z-score),[20],-0.206
same,glycan array binding signal (z-score),[21],-0.269
same,glycan array binding signal (z-score),[22],-0.125
same,glycan array binding signal (z-score),[23],-0.281
same,glycan array binding signal (z-score),[24],-0.221
same,glycan array binding signal (z-score),[25],-0.243
same,glycan array binding signal (z-score),[26],-0.187
same,glycan array binding signal (z-score),[27],-0.218
same,glycan array binding signal (z-score),[28],-0.209
same,glycan array binding signal (z-score),[29],-0.225
same,glycan array binding signal (z-score),[30],-0.056
same,glycan array binding signal (z-score),[31],1.52
same,glycan array binding signal (z-score),[32],0.974
same,glycan array binding signal (z-score),[33],-0.273
same,glycan array binding signal (z-score),[34],-0.225
same,glycan array binding signal (z-score),[35],-0.183
same,glycan array binding signal (z-score),[36],-0.25
same,glycan array binding signal (z-score),[37],-0.23
same,glycan array binding signal (z-score),[38],-0.245
same,glycan array binding signal (z-score),[39],-0.265
same,glycan array binding signal (z-score),[40],-0.226
same,glycan array binding signal (z-score),[41],-0.245
same,glycan array binding signal (z-score),[42],-0.151
same,glycan array binding signal (z-score),[43],-0.228
same,glycan array binding signal (z-score),[44],-0.269
same,glycan array binding signal (z-score),[45],-0.262
